Experimental data reported in article PMC4336329 (PLoS ONE, 2015).
Out of some 310,000 compounds screened, about 14,000 (4.5%) showed an effect of 50% or more. The effect is printed as a negative number. This is one part of the list.

Target: human ether-à-go-go-related gene (hERG) potassium channel (human, UniProt Q12809)
Assay: primary screen, population patch clamp on CHO cells stably expressing hERG
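Note: peak tail current of the secondary pulse compared with the same well before compound.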

Sequence of human ether-à-go-go-related gene (hERG) potassium channel (Q12809 whole entry, looked up): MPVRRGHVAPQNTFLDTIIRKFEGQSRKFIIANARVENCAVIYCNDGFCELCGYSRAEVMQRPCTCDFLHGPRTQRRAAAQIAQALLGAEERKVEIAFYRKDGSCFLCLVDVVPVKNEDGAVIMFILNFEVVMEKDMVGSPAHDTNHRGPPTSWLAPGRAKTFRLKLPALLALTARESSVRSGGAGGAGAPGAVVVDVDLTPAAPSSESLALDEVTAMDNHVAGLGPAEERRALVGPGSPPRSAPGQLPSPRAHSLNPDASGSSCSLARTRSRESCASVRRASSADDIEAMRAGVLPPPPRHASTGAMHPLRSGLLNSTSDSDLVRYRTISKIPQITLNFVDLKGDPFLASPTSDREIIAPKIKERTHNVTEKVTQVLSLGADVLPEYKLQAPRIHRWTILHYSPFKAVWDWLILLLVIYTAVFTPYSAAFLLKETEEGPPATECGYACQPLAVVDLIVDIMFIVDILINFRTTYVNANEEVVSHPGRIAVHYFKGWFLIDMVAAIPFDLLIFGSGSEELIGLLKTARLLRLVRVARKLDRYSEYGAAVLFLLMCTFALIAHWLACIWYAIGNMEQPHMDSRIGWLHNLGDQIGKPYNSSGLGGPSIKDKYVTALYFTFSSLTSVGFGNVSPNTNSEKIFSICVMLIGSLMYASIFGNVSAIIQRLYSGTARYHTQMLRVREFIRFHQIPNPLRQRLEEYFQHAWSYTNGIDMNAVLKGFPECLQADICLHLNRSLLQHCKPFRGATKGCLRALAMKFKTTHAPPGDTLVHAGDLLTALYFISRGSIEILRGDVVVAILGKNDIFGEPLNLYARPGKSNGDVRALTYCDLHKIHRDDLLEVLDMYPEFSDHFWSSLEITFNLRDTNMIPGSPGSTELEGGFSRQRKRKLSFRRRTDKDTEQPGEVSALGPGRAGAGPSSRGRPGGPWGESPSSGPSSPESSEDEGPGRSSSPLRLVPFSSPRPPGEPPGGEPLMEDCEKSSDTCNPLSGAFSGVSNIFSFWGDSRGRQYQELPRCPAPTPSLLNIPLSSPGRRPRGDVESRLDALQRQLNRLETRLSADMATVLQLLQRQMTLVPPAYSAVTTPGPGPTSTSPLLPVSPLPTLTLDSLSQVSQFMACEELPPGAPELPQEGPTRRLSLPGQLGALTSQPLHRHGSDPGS

SMILES | hERG current change (%, negative = inhibition) at 10uM [%]
COc1ccc(C(=O)OCc2csc(C)n2)c(O)c1 | 0.732
Cc1cc(NC(=O)Cn2nnc3sc4c(c3c2=O)CCCC4)no1 | 9.97
COc1ccc(S(=O)(=O)N(CC(=O)NCCSc2ccccn2)c2ccccc2)cc1 | 7.58
Cc1ccccc1OCC(=O)Nc1cc(Cl)ccc1Oc1ccccc1 | 0.121
COC(=O)C1=C(c2c(C)noc2C)C[C@@H]2CC[C@H]1N2C(=O)NCC1CC1 | 13.6
CCOC(=O)c1c(C)n(Cc2ccc3c(c2)OCO3)c2ccc(O)cc12 | 6.78
CC(OC(=O)CCc1nc2ccccc2c(=O)[nH]1)C(=O)c1ccc(Br)cc1 (stereo not shown) | -36.4
CCOC(=O)c1c(NC(C)=O)sc2c1CCN(Cc1ccccc1)C2.Cl | -20.5
CC(C)c1ccc(S(=O)(=O)N2CCN(C(=S)NCc3ccco3)CC2)cc1 | 0.194
Br.CCCCCCCn1c(=N)n(CC(=O)c2ccco2)c2ccccc21 | -70.6
O=C(Cn1nnc2ccccc2c1=O)N[C@@H](Cc1ccccc1)C(=O)O | 11.1
COc1ccc(Oc2nnc(-c3ccc(C)cc3)c3ccccc23)cc1 | 5.64
O=C(CNC(=O)c1cccnc1)N=Nc1c(O)[nH]c2c(Br)cc(Br)cc12 | -40.2
CCC1(c2ccc(OC)cc2)NC(=O)N(CC(=O)NC2CCCCC2C)C1=O (stereo not shown) | -4.7
Nn1c(SCc2cccc(F)c2)nnc1-c1cccnc1 | 9.33
COc1ccc(C(=O)C2CCN(CC(=O)Nc3ccccc3F)CC2)cc1 | -17.2
COc1ccc(NC(=O)CN(C)C(=O)CSc2ccc(Br)cc2)cc1 | 2.32
O=C(CNC(=O)c1ccccc1F)N/N=C/c1ccco1 | 19.3
Cc1noc(NS(=O)(=O)c2ccc(NC(=O)CCCOc3ccc(Cl)cc3Cl)cc2)c1C | 6.36
O=C(CN1C(=O)NC2(CCCC2)C1=O)NNC(=O)c1ccc(Br)cc1 | -0.24
N#Cc1cc(NCC2CCCO2)c([N+](=O)[O-])cc1C#N (stereo not shown) | -20.1
Cc1cc(C)n(-c2ccc(S(N)(=O)=O)cc2[N+](=O)[O-])n1 | -1.17
CC(C)C(NS(=O)(=O)c1ccc2c(c1)oc(=O)n2C)C(=O)N1CCN(C2CCCCC2)CC1 (stereo not shown) | 2.88
Oc1ccccc1/C=N/Nc1ncc(Br)cn1 | -0.366
O=C(CSc1nc2scc(-c3ccco3)c2c(=O)n1-c1ccccc1)N1CCOCC1 | -10.6
CCCN(CCC)S(=O)(=O)c1ccc(C(=O)Nc2nnc(CSC)o2)cc1 | 0.929
CCOc1ccc(C(=O)NC(=S)Nc2cccc(NC(=O)c3ccco3)c2)cc1[N+](=O)[O-] | 17
COc1ccc(C(=O)Cn2cnc3ccccc3c2=O)c(OC)c1 | -9.27

SMILES | hERG current change (%, negative = inhibition) at 10uM [%]
Clc1ccsc1-c1csc(-c2cccnc2)n1 | 27.4
Cc1ccnc(-n2c(C)cc(C=C3C(=O)N(C)C(=S)N(C)C3=O)c2C)c1 | 3.9
O=C(NCCc1nnc2ccc(NCc3cccnc3)nn12)c1ccccc1F | 8.6
CC(C)N(Cc1nc2ccccc2c(=O)[nH]1)C(=O)c1ccc(NC(=O)CSc2nnnn2C)cc1 | -4.55
Cc1ccc(CNC(=O)CSc2nc(=O)n3ccccc3n2)cc1 | -40.4
CN1CCN(C(=O)CCN2C(=O)/C(=C/c3ccccc3Cl)SC2=S)CC1 | 9.65
O=S(=O)(NCC(c1ccco1)N1CCN(c2ccccc2)CC1)c1ccc(F)cc1 (stereo not shown) | 0.0547
CC1CC(C)CN(CCCNC(=O)CCNC(=O)Cn2cnc3ccccc3c2=O)C1 (stereo not shown) | 18
Cc1ncsc1CCOC(=O)c1cccnc1.Cl | 8.06
CCc1c(C(=O)NC2CCCCC2)[nH]c(C)c1C(C)=O | 18.3
S=c1[nH]nc(-c2ccc(Br)cc2)n1Cc1ccco1 | 5.97
COc1ccc(N(CC(=O)Nc2ccc3c(c2)OCCO3)S(C)(=O)=O)c(OC)c1 | -6.42
FC(F)(F)c1cccc(Cc2noc(CN3CCSCC3)n2)c1 | 0.814
O=C(NC1CCCC1)C(c1cccnc1)N(Cc1ccccc1)C(=O)c1csnn1 (stereo not shown) | -5.65
Cc1ccc(C(c2sc3nc(C)nn3c2O)N2CCN(CCO)CC2)cc1 (stereo not shown) | 1.95
CC(C)(C)n1nc2c(c1NC(=O)c1ccc(S(=O)(=O)N3CCCC3)cc1)CSC2 | 1.95
Cc1cccc(COCC(Cc2ccccc2)N2CCN(C(=O)c3cccc(Cl)c3)CCC2=O)c1 (stereo not shown) | -15.1
O=C(O)c1cc([N+](=O)[O-])ccc1NCCO | 4.94
CC(=O)OC(C(=O)NCc1ccco1)c1cccnc1 (stereo not shown) | 10.1
Cc1ccc(NC(=O)CN(C)C(=O)CCOc2cccc(C)c2)cc1 | -4.49
FCCCOc1ccc(-c2ccnc(-c3ccccc3)n2)cc1 | 13
COc1ccccc1Oc1ccc(S(=O)(=O)Nc2cccnc2)cc1 | 3.02
CC(=O)Oc1ccc2c(c1)C(=O)c1ccccc1CO2 | -14.8
Cc1cc(C)cc(NC(=S)N2CCC(NC(=O)c3ccccc3C)CC2)c1 | -0.357
CCCOc1cccc(C2/C(=C(/O)c3ccc4c(c3)CC(C)O4)C(=O)C(=O)N2CCN2CCOCC2)c1 (stereo not shown) | 15.3
COc1cccc(-n2c(Cc3cc(=O)[nH]c(=O)[nH]3)nnc2SC(C)C)c1 | -3.92
O=C(O)/C(=C\c1ccc(Cl)c([N+](=O)[O-])c1)c1ccc(S(=O)(=O)N2CCCCC2)s1 | -2.26
